Data on 87 molecules can be found in paper PMC4336329 (PLoS ONE, 2015).

In all, about 310,000 compounds went through this assay and about 2,200 (0.71%) showed an effect of 50% or more. Effects have a minus sign here. The list shows a part of the results.

In this test the target is human ether-à-go-go-related gene (hERG) potassium channel (human, UniProt Q12809). The experiment in a line: primary screen, population patch clamp on CHO cells stably expressing hERG.
Sequence of human ether-à-go-go-related gene (hERG) potassium channel (Q12809 whole entry, looked up): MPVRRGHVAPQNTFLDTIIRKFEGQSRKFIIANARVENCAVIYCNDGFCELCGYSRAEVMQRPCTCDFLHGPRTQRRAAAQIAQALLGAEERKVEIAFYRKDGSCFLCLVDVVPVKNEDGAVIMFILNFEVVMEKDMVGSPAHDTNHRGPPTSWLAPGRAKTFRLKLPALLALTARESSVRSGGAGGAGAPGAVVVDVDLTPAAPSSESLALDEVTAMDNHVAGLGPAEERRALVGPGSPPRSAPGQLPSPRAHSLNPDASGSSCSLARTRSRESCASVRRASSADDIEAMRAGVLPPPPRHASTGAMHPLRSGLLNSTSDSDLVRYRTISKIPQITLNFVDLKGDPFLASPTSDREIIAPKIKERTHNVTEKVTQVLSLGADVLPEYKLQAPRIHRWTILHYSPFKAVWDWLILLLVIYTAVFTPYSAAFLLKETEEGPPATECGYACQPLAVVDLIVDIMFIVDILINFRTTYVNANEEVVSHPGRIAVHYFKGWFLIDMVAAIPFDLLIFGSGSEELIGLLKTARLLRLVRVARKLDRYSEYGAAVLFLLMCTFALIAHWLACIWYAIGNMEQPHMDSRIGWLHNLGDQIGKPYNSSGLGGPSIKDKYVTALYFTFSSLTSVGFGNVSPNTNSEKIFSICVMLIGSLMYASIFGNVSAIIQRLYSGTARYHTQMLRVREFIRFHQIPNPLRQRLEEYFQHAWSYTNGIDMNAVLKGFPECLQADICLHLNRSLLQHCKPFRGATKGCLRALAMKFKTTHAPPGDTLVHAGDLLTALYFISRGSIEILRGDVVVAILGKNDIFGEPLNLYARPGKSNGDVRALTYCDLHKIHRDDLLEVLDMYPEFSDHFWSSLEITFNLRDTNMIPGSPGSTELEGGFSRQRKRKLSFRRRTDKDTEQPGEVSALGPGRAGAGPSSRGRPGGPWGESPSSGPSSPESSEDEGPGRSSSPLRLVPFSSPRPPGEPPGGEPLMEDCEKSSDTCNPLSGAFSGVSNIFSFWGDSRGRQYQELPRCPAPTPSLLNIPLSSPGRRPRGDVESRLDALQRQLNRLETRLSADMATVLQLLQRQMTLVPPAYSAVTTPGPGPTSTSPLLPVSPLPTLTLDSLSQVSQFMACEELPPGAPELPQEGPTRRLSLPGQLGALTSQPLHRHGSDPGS
With `O=C(NCCCNC(=O)c1cnccn1)c1ccc(Cl)c(Cl)c1`, the “hERG current change (%, negative = inhibition) at 1uM” value worked out at 4.02%. Under `CC(C)(C)c1ccc(Cn2nc(CC(=O)O)c3ccccc3c2=O)cc1` stands 18%.

Take `CN(C)C(=O)N1CCC(C(=O)NCc2ccc(F)cc2Cl)CC1`: the “hERG current change (%, negative = inhibition) at 1uM” value is 12.7%. In the case of `COC(=O)c1c(NC(=O)CN2CCN(c3ccccc3Cl)CC2)sc(C)c1C` it was 1.85%; in that of `Cc1cccc(C2c3[nH]c4ccccc4c3CCN2Cc2cnn(-c3ccc(F)cc3)c2)n1` (stereo not drawn), 12.2%. As to `OC1=C(O)c2nc3cc(C(F)(F)F)ccc3nc21`, the “hERG current change (%, negative = inhibition) at 1uM” value is 1.28%. In the case of `Cc1ccccc1NS(=O)(=O)c1cc2c3c(c1)CC(=O)N3CCC2` it was 7.86%; in that of `OC(COC(c1ccccc1)c1ccccc1)CN1CCc2ccccc2C1` (stereo not drawn), -75.3%.

Turning to `Cc1ccccc1N1CC(C(=O)Nc2ccncc2)CC1=O` (stereo not drawn), the “hERG current change (%, negative = inhibition) at 1uM” value was found to be 1.72%. In the case of `Cc1oc(-c2ccccc2F)nc1CS(=O)CC(=O)NCc1cccs1` (stereo not drawn) it was 6.87%; in that of `O=C(CCN1C(=O)/C(=C\c2ccc(F)cc2)SC1=S)Nc1ccccc1`, 6.78%; in that of `CCC(C(=O)NNC(=O)c1cnccn1)c1ccccc1` (stereo not drawn), 11.4%.

Consider `O=C(Cc1ccc(NC2=NC3CS(=O)(=O)CC3S2)cc1)N1CCN(c2ccc(F)cc2)CC1` (stereo not drawn), for which the “hERG current change (%, negative = inhibition) at 1uM” value was 15.8%.

Regarding `CC(=O)C1=C(O)C(=O)N(Cc2ccccc2)C1c1ccc(N(C)C)cc1` (stereo not drawn), the “hERG current change (%, negative = inhibition) at 1uM” value was 16.1%. Under `Cc1cc(C)c(C(=O)COC(=O)c2cc([N+](=O)[O-])ccc2NCCO)cc1C` stands 1.03%. Under `CC(C)N(C(=O)COC(=O)c1ccc(Cl)c(S(N)(=O)=O)c1)C(C)C` stands 10.8%; under `Cc1cc(CNC(=O)c2cccc([N+](=O)[O-])c2C)c2ccccc2n1`, -24.3%. In the case of `Cc1cc(-c2nn(C)c(=O)c3ccccc23)cc(C)c1O` it was 7.52%; in that of `CCOC(=O)NN1C(=O)c2ccccc2NC1c1ccc(OC)cc1OC` (stereo not drawn), 10.2%; in that of `O=C(Nc1ccc([N+](=O)[O-])cn1)c1cc(-c2cccc(Br)c2)nc2ccccc12`, 12.3%. Take `C=CCn1c(SCc2ccccc2F)nc2cc(C(=O)O)ccc2c1=O`: the “hERG current change (%, negative = inhibition) at 1uM” value came to 23.8%. In the case of `CCN(Cc1ccncc1)S(=O)(=O)c1ccc(C(C)=O)cc1`, the “hERG current change (%, negative = inhibition) at 1uM” value is listed as -5.85%. Turning to `CC(C)Nc1nc(SC(C)C(=O)Nc2ccccc2)nc(N(C)C)n1` (stereo not drawn), the “hERG current change (%, negative = inhibition) at 1uM” value is recorded as -7.07%. Turning to `O=c1c2c3c(sc2ncn1/N=C/c1ccc(Br)o1)CCCC3`, the “hERG current change (%, negative = inhibition) at 1uM” value turned out to be 1.4%. As for `CCO[C@@H]1OC(C(=O)NC2CC2)=C[C@H](C2CC2)[C@H]1CCCO`, the “hERG current change (%, negative = inhibition) at 1uM” value was found to be 11.3%. Turning to `Cc1csc(SCC(=O)N(C)CC(=O)Nc2ccc(F)cc2)n1`, the “hERG current change (%, negative = inhibition) at 1uM” value came out at 9.45%. `N#Cc1ccc(CNc2cnccn2)cc1`: the “hERG current change (%, negative = inhibition) at 1uM” value is reported as -5.84%.

Consider `O=C(c1ccccc1F)N1CCN(c2ccc([N+](=O)[O-])c(NCc3cccnc3)c2)CC1`, for which the “hERG current change (%, negative = inhibition) at 1uM” value was 7.94%. In the case of `CCCc1nc2oc3c(OC)ncnc3c2c2c1COC(C)(C)C2` it was 11.1%; in that of `COc1cc(/C=C/C(=O)OCC(=O)NCC2CCCO2)ccc1OCC#N` (stereo not drawn), 9.6%.

For `COc1cc2[nH]c(=O)n(Cc3ccc(C(=O)NCCCN4CCN(C)CC4)cc3)c(=O)c2cc1OC`, the “hERG current change (%, negative = inhibition) at 1uM” value is reported as 0.861%. Consider `O=C(CSc1nc(-c2ccccc2)cs1)Nc1cccc([N+](=O)[O-])c1`, for which the “hERG current change (%, negative = inhibition) at 1uM” value came out at 11.1%.

As to `CC(O)c1nc2ccccc2n1Cc1ccccc1` (stereo not drawn), the “hERG current change (%, negative = inhibition) at 1uM” value was found to be 8.76%. Under `COc1cc(OC)c2c(c1)OC(c1ccc(OC)c(OC)c1)C(O)C2=O` (stereo not drawn) stands 11.7%; under `COc1ccc(CN2C(=O)C(CC(C)C)Nc3ncnc(N4CCN(c5ccccn5)CC4)c32)cc1.O=C(O)C(F)(F)F` (stereo not drawn), -26.4%; under `CCOc1ccc(Br)cc1S(=O)(=O)Nc1cccnc1`, 11.7%.

As to `N#C/C(=C\C=C\c1ccccc1)c1nc(-c2ccc3c(c2)OCO3)cs1`, the “hERG current change (%, negative = inhibition) at 1uM” value is listed as 1.07%. Take `C=CCn1cc(C(=O)N2CCN(CC)CC2)c(=O)c2cc(S(=O)(=O)N(CC)CC)ccc21`: the “hERG current change (%, negative = inhibition) at 1uM” value turned out to be 8.84%.

Take `Cc1cc(=O)oc2cc(OS(C)(=O)=O)ccc12`: the “hERG current change (%, negative = inhibition) at 1uM” value is -10.3%. Regarding `CCOc1ccccc1C(=O)NCC(=O)OCc1csc(CC(=O)Nc2ccc(C)cc2)n1`, the “hERG current change (%, negative = inhibition) at 1uM” value came to 2.59%. In the case of `CC(c1cccs1)N(Cc1ccco1)C(=S)Nc1ccc(F)c(Cl)c1` (stereo not drawn) it was 10.4%; in that of `COc1cccc(NC(=O)c2ccc(-n3cccn3)nc2)c1`, 9.6%; in that of `O=C(COC(=O)C1Cc2ccccc2CN1C(=O)c1ccccc1Cl)Nc1ccc(N2CCOCC2)cc1` (stereo not drawn), 10.8%. For `Cc1cc(C)c(C(=O)COC(=O)CNC(=O)c2ccccc2C)c(C)c1`, the “hERG current change (%, negative = inhibition) at 1uM” value stood at 11.6%.

On to `O=[N+]([O-])c1ccc2nc(/C=C/c3ccc(Cl)cc3)[nH]c2c1`, for which the “hERG current change (%, negative = inhibition) at 1uM” value is 7.42%.

For the molecule `COc1ccc(S(=O)(=O)NC(C)C(=O)Nc2ccccc2)cc1Cl` (stereo not drawn), the “hERG current change (%, negative = inhibition) at 1uM” value worked out at 13.9%. Under `O=C(c1cccc(C(F)(F)F)c1)N1CCC(O)(CS(=O)(=O)Cc2ccc(Cl)cc2)CC1` stands 17.2%; under `CNC(=S)N/N=C/c1ccc(OCC(=O)Nc2c(C)cc(C)cc2C)c(OC)c1`, 7.08%. For `COc1ccc(/C=C(\NC(=O)c2ccc(OC)cc2)C(=O)Nc2cccc(C(=O)O)c2)cc1`, the “hERG current change (%, negative = inhibition) at 1uM” value amounted to 14.5%. `Cc1nc(SCC(=O)O)c(C#N)c2c1CCCC2`: the “hERG current change (%, negative = inhibition) at 1uM” value is recorded as -5.46%. In the case of `O=C(c1ccc(S(=O)(=O)Nc2ccccc2)cc1)N1CCCCCCC1` it was 12.1%; in that of `COc1cccc(OCc2cc(C(=O)N(C)Cc3nc4ccccc4[nH]3)no2)c1`, 9.07%; in that of `CC(=O)c1ccc(NC(=O)CNCC(c2ccccc2)N(C)C)cc1.O=C(O)C(=O)O` (stereo not drawn), 0.601%. For `O=C(NCCCO)c1cc2ccccc2[nH]1`, the “hERG current change (%, negative = inhibition) at 1uM” value is 5.51%. For the molecule `O=C1CCC(C(=O)N(Cc2cccs2)C2(C(=O)NC3CCCCC3)CCCCC2)N1` (stereo not drawn), the “hERG current change (%, negative = inhibition) at 1uM” value came out at 7.99%. In the case of `CSc1cccc(NS(=O)(=O)c2ccc3c(c2)CCN3C(C)=O)c1` it was 18.1%; in that of `CS(=O)(=O)N(CC(=O)NCc1ccco1)c1ccccc1Cl`, -4.59%. In the case of `CC(=O)C1=C(O)C(=O)N(c2ccc(Br)cn2)C1c1ccc(Br)cc1` (stereo not drawn), the “hERG current change (%, negative = inhibition) at 1uM” value is on record as 13.6%. In the case of `COc1ccc(C(=O)N2CCC(n3nccc3NC(=O)C3CC3)CC2)c(OC)c1OC` it was 21.3%; in that of `CCOc1cccc2cc(C(=O)N3CC(C)OC(C)C3)c(=O)oc12` (stereo not drawn), 10.6%; in that of `Cc1cc(C)c(S(=O)(=O)Nc2ncn[nH]2)cc1C`, 30%. Turning to `Fc1ccccc1CSc1nnc(Cn2cnc3ccccc32)n1-c1ccccc1`, the “hERG current change (%, negative = inhibition) at 1uM” value amounted to 4.67%.

On to `Cc1cc(-n2cnc3c(=O)[nH]cnc32)ccc1N`, for which the “hERG current change (%, negative = inhibition) at 1uM” value was determined as 12.6%. For the molecule `CC(C)(C)c1ccc(OCCOc2ccc(C(C)(C)C)cc2NC=O)c(NC=O)c1`, the “hERG current change (%, negative = inhibition) at 1uM” value stood at 10%. In the case of `Cc1ccc(C(=O)CSc2nccn2-c2ccccc2)cc1` it was 6.45%; in that of `COCCNC(=O)c1ccc(-c2csc(C)n2)cc1`, 11.5%. With `CC1CCC2(CC1)NC(=O)N(CC(=O)c1ccc(CNC(=O)C(C)(C)C)s1)C2=O` (stereo not drawn), the “hERG current change (%, negative = inhibition) at 1uM” value stood at 1.25%.

As for `COC(=O)N/N=C/c1cc(Cl)cc(Cl)c1OCc1ccccc1F`, the “hERG current change (%, negative = inhibition) at 1uM” value amounted to 12.8%. For the molecule `FC(F)(F)c1cccc(N2Cc3ccccc3C2)c1`, the “hERG current change (%, negative = inhibition) at 1uM” value came to 9.35%. As to `CC1=C(CC(=O)O)c2cc(F)ccc2/C1=C/c1ccc(S(C)(=O)=O)cc1`, the “hERG current change (%, negative = inhibition) at 1uM” value amounted to 17%. As for `COc1cccc(Cn2c(=O)ccc3ccccc32)c1`, the “hERG current change (%, negative = inhibition) at 1uM” value stood at 5.85%. In the case of `CC(C)N(C(=O)Cn1c(SCC(=O)NCc2ccc3c(c2)OCO3)nc2ccccc21)C(C)C`, the “hERG current change (%, negative = inhibition) at 1uM” value is -10.6%.

For `O=C(NCc1ccccc1)C1CC(=O)N(c2ccc(OCC(=O)N3CCOCC3)cc2)C1` (stereo not drawn), the “hERG current change (%, negative = inhibition) at 1uM” value was found to be 5.03%. In the case of `Cc1c(N2C(=O)CSC2c2ccco2)c(=O)n(-c2ccccc2)n1C` (stereo not drawn) it was 0.905%. Regarding `OCC1N=C(c2ccccn2)OC1c1ccccc1` (stereo not drawn), the “hERG current change (%, negative = inhibition) at 1uM” value worked out at 17.2%.

Turning to `O=C(CSc1nc2ccccc2c(=O)n1CCCN1CCOCC1)Nc1ccc2c(c1)OCO2`, the “hERG current change (%, negative = inhibition) at 1uM” value was -12.7%. In the case of `COCCNC(=O)Cn1nc(C(F)(F)F)cc1C` it was 6.49%; in that of `O=C(N/N=C/c1ccc(OCc2ccccc2)cc1)c1ccc(O)cc1`, 16.4%; in that of `CC(=O)C1=C(C)NC(SCC(N)=O)=C(C#N)C1CC(C)C` (stereo not drawn), 20.3%.

Turning to `COc1ccc(NC(=O)c2ccc3c(c2)C(=O)N(Cc2cccnc2)C3=O)c(OC)c1`, the “hERG current change (%, negative = inhibition) at 1uM” value is on record as 1.82%. On to `CN(C)c1ccc(P(=O)(OC2CCCCC2)C(Nc2ccccc2)c2cccnc2)cc1` (stereo not drawn), for which the “hERG current change (%, negative = inhibition) at 1uM” value is 12.7%.

`COC(=O)Cc1ccc(Oc2ncc(C(F)(F)F)cc2Cl)cc1`: the “hERG current change (%, negative = inhibition) at 1uM” value was 15.9%.

On to `COc1cccc(/C=N/Nc2nc(C)cc(=O)[nH]2)c1OC`, for which the “hERG current change (%, negative = inhibition) at 1uM” value came to 10.7%.

As to `CCCCCC(=O)Nc1ccccc1N1CCOCC1`, the “hERG current change (%, negative = inhibition) at 1uM” value is 3.19%. In the case of `Cc1nc(Nc2nc3c(c(=O)[nH]2)CCC3)nc2ccccc12` it was -5.38%. In the case of `O=C(CN1C(=O)NC(c2ccccc2)(c2ccccc2)C1=O)NCCNCCO` it was 22.7%; in that of `CC(C)(CO)CNC(=O)CCc1nnc(Cc2ccc(-c3ccccc3)cc2)o1`, 4.36%.
